Binding signal data for 42 sequences are collected here from PMC7819943, “Rice protein-binding microarrays: a tool to detect cis-acting elements near promoter regions in rice”.

Some of the results follow.

The experiment deals with T1, OsWOX13 (Oryza sativa, UniProt Q5QMM3 1-267).
T1 sequence: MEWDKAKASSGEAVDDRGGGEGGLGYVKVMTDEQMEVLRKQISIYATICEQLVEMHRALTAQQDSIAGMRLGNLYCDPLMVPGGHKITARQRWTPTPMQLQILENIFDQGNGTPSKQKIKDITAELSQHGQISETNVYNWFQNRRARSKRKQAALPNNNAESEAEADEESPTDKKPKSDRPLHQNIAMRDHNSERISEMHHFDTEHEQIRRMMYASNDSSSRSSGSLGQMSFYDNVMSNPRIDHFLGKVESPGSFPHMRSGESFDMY
As to the kind of experiment: protein-binding microarray (RPBM); PBS, 2% BSA, 51.3 ng/ul salmon testes DNA, 50 uM zinc acetate, 200 nM TF, 25 C, 1 h; high values mean tight binding. The following applies: protein: recombinant; tags: N-terminal polyhistidine and DsRed monomer fusion (pET32a); label: CyDye5-dUTP incorporated in the synthesized complementary strand; 3' TTTTT single-stranded linker to array surface; dsDNA, one strand shown. The gist of the method:
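Per-feature fluorescence intensity (arbitrary units), read on an Axon 4000B scanner, is the binding signal. Transcription factors carrying an N-terminal polyhistidine tag and DsRed fusion were expressed in E. coli BL21-CodonPlus and purified on Ni–NTA. A custom Agilent array, made double-stranded by primer extension with Cy5-dUTP and blocked with 2% BSA, was incubated with 200 nM protein in PBS, 2% BSA, salmon testes DNA and 50 µM zinc acetate at 25 °C for 1 h and then washed.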
Regarding “TGATTTATTAATTACACATATGATTTAAGTTCTAAATGATCGGAGTCACCTAGTGCAG”, the binding signal was 30600 fluorescence intensity (a.u.).
For the sequence “ACCATAATTACATCTGTCAAATTTCTAGAAGAAAAGTTGTCGGAGTCACCTAGTGCAG”, the binding signal was 42200 fluorescence intensity (a.u.).
For the sequence “GGTTAATTGTGGATCGGGTGCGCCGTGATGGTGCGTGCACCGGAGTCACCTAGTGCAG”, the binding signal is 30100 fluorescence intensity (a.u.).
For “TGCTCTAAATTTTCTTATTAATTTTATGATCTTGTGATGGCGGAGTCACCTAGTGCAG”, the binding signal is 9820 fluorescence intensity (a.u.).
Turning to “CTTGCTGGTACCAATTAACATGGGTATGTTTAATTTGCTGCGGAGTCACCTAGTGCAG”, the binding signal is 3650 fluorescence intensity (a.u.).
As for “GCAAATCGTTAATTGACATGTCAAGAGAGTGGCAAATAGTCGGAGTCACCTAGTGCAG”, the figure is 49400 fluorescence intensity (a.u.); as for “CACTCTTGTGACATGGCAATTAACGATTTGCCACGCTCTGCGGAGTCACCTAGTGCAG”, 9520 fluorescence intensity (a.u.); as for “CCATGATGAATTCCTGATTTTCCTATCTTCAGCAAAAGCACGGAGTCACCTAGTGCAG”, 7460 fluorescence intensity (a.u.).
As to “ACTAATAATTGGCTATACTATTAAACCTGCTCTAATTAATCGGAGTCACCTAGTGCAG”, the binding signal is 24000 fluorescence intensity (a.u.).
For the sequence “CCATTTAGCAATTATTAATTGCTCCCCAACTCCAACTCCACGGAGTCACCTAGTGCAG”, the binding signal is 22200 fluorescence intensity (a.u.).
Take “CCTAATTGCGCCATGATTTGAAAGCAAATAAATAAATAAACGGAGTCACCTAGTGCAG”: the binding signal is 13500 fluorescence intensity (a.u.).
With “TTTAAATTCTATTAATATAATCTTTTAAAGTAACTTCGTTCGGAGTCACCTAGTGCAG” the figure was 5170 fluorescence intensity (a.u.); with “TTTTATAATTGTTCATATCGCCGATGCTTATAATCATCTCCGGAGTCACCTAGTGCAG”, 7080 fluorescence intensity (a.u.); with “ACAGCCAGTTGATATCAAGATTGACGCAAAATTGAATATACGGAGTCACCTAGTGCAG”, 6650 fluorescence intensity (a.u.).
Consider “CAAGTGCTAATCAATATATCCAACTCACTATAATTTTGGTCGGAGTCACCTAGTGCAG”, for which the binding signal is 5230 fluorescence intensity (a.u.).
Regarding “CGATTCTAAATTGCTACTCCCTCCGTCCCATAATATAAGGCGGAGTCACCTAGTGCAG”, the binding signal was 4420 fluorescence intensity (a.u.).
Regarding “GGTGACAGTTTGGTTAGTGACAAATAGTTACATTCTCGTTCGGAGTCACCTAGTGCAG”, the binding signal is 5070 fluorescence intensity (a.u.).
Regarding “GCTAATTAAAAGAATTCCGTGGATTACATGGAACCTGATACGGAGTCACCTAGTGCAG”, the binding signal is 19600 fluorescence intensity (a.u.).
Consider “ATACGCAAATTTTAAATTGCAAATGAACATCACATATTGGCGGAGTCACCTAGTGCAG”, for which the binding signal was 8860 fluorescence intensity (a.u.).
For the sequence “TAAATTAGTGTCTAACTAAAGTTAAGTCACTAGATCCAAACGGAGTCACCTAGTGCAG”, the binding signal is 4220 fluorescence intensity (a.u.).
With “AGTCACATCCACCCAATCAAACACACCCTAACATTTGGAACGGAGTCACCTAGTGCAG”, the binding signal is 4230 fluorescence intensity (a.u.).
“CGTTATAATTGATCTCCCGTTGAAACAGAATCCTGTGGTGCGGAGTCACCTAGTGCAG”: the binding signal is 30300 fluorescence intensity (a.u.).
In the case of “AGGTTCAATCAACTCATCTTGTCTATTGAAACTCTTCTCGCGGAGTCACCTAGTGCAG”, the binding signal is 30500 fluorescence intensity (a.u.).
As for “ATACGTATAATTTATAAGTAATTAATGGCAAAAGTTCACACGGAGTCACCTAGTGCAG”, the figure is 13400 fluorescence intensity (a.u.); as for “CAACCGGTTGAACCAATCAAACCATGAACCGAGGCTATGACGGAGTCACCTAGTGCAG”, 3290 fluorescence intensity (a.u.).
In the case of “ACGACCCGTCAATTAATCCAGAGAACACGGACTGCGTCAGCGGAGTCACCTAGTGCAG”, the binding signal was 9600 fluorescence intensity (a.u.).
As to “TACTTTAATTTTGGATAGACTAGTTCTTCCATGCTTTGCTCGGAGTCACCTAGTGCAG”, the binding signal was 10000 fluorescence intensity (a.u.).
On to “CCCTCTTGACAGAGCACTACTCAAGTCCCTGTATATATCCCGGAGTCACCTAGTGCAG”, for which the binding signal was 4540 fluorescence intensity (a.u.).
Regarding “CTAATAATTAATTGTTGTTGCATGAGAGCCAACACGTACGCGGAGTCACCTAGTGCAG”, the binding signal is 33000 fluorescence intensity (a.u.).
Take “GTATATTTAATAATAAATCAACTCGCAATGAGACAAAATGCGGAGTCACCTAGTGCAG”: the binding signal is 4570 fluorescence intensity (a.u.).
Consider “ACTAACATGGTAGATTGCGCATTTATTTGTACTGTATTATCGGAGTCACCTAGTGCAG”, for which the binding signal is 8090 fluorescence intensity (a.u.).
Take “GGTGTAATAGATGAAGTTGGCATATGGATATTTGGAGGTACGGAGTCACCTAGTGCAG”: the binding signal is 4840 fluorescence intensity (a.u.).
In the case of “TGAATTGATCAAGTGCTAATAGAGTAGCAGGTCAATGCAACGGAGTCACCTAGTGCAG”, the binding signal was 5250 fluorescence intensity (a.u.).
As to “TGTTGATTGAATTGCATCCCTCAACCATAATAGCAGAGAACGGAGTCACCTAGTGCAG”, the binding signal was 36300 fluorescence intensity (a.u.).
As for “TAGATCATTACGTAGATTGCATTAAGGGAAATTTCACTAACGGAGTCACCTAGTGCAG”, the figure is 3630 fluorescence intensity (a.u.); as for “CCATAACAAATTTAATAATCAGTTAAGTTAAGCTCACCTTCGGAGTCACCTAGTGCAG”, 15100 fluorescence intensity (a.u.); as for “TTAAACTTCTAATTTTAACGTGGAACTAAATACAGCCTAACGGAGTCACCTAGTGCAG”, 5360 fluorescence intensity (a.u.).
With “GCCAAATATTGACTGCTGGTTTTGTTTACCCTCCGCAGTGCGGAGTCACCTAGTGCAG” the figure was 5140 fluorescence intensity (a.u.).
On to “TGGATGATTGGTGAGATAGGTGTTCCTTATAATTATAGGGCGGAGTCACCTAGTGCAG”, for which the binding signal was 54800 fluorescence intensity (a.u.).
As for “TCCGACGAAAATTAAGATTATATTATGATTTTGTTAGAGACGGAGTCACCTAGTGCAG”, the binding signal was 4610 fluorescence intensity (a.u.).
As for “AGGTACCGGCTTGATTGGCAGGTGTTGAGGCGATTCTTCTCGGAGTCACCTAGTGCAG”, the figure is 18300 fluorescence intensity (a.u.).
For the sequence “TTGGAACTGATTTGCAATAGAAGGCTATGACTAAATTGATCGGAGTCACCTAGTGCAG”, the binding signal is 21000 fluorescence intensity (a.u.).
